The chains are these.
B1: LINE1-mini (parent)
chain: GGCAGAGCUCAACACAGCGUGGCAAAGUGGCUGUGGCUAGACUGCC

The source gives no read counts; variants with many changes may rest on few reads.

The variants in the series derive from B1. The series is described as follows: self-cleavage, relative activity (ratio to wild type); higher = more cleavage; in vitro, sequencing; the parent is a self-cleaving ribozyme.
GGCAGAGCUCAACACCGCGUGGCAAAGUGGCUGUGGUUAGCCUGCC [A16C C37U A41C]: the self-cleavage is 0.05.

GGCAGAGCUCAACACGGACUGGCAAAGUGGCUGUGGCUAGACUGCC [A16G C18A G19C]: the self-cleavage was 0.16.

With GGCAGAGCUCAACACGGUGUGGCAGAGCGGCUGUGGCUAGACUGCC [A16G C18U A25G U28C], the self-cleavage was determined as 0.01.

For GGCAGAGCUCAACACCGCGUGGCAAAGUGGCUGUGGCGAUACCGCC [A16C U38G G40U U43C], the self-cleavage stood at 0.04.

As for GGCAGAGCUCAACACGGCGUUGCAAAGUGGCUGUGGCAAGACUGCC [A16G G21U U38A], the self-cleavage worked out at 0.15.

Regarding GGCAGAGCUCAACACCGCGUGGCAAAGUGGCUGUGGCUAAGCUGCC [A16C G40A A41G], the self-cleavage is 0.03.

Consider GGCAGAGCUCAACACGGCUUGGCAUAGUGGAUGUGGCUGGACUGCC [A16G G19U A25U C31A A39G], for which the self-cleavage is 0.01.

Consider GGCAGAGCUCAACACGGCGUGGCGAAGUGGCUGUGGCUAGACGGCC [A16G A24G U43G], for which the self-cleavage was 0.

For the variant GGCAGAGCUCAACACGGCGUGGCAAAGUGACUGUGGUUUGACUGCC [A16G G30A C37U A39U], the self-cleavage amounted to 0.06.

For GGCAGAGCUCAACACGGUGUGGCAAAGUGGCUGUCGCUAAACCGCC [A16G C18U G35C G40A U43C], the self-cleavage amounted to 0.01.

For the variant GGCAGAGCUCAACACCGCGUGGCAAAGUGGCUGAGGAUGGACUGCC [A16C U34A C37A A39G], the self-cleavage is 0.04.

On to GGCAGAGCUCAACACGGCGGGGCAAAGUUGCUGUGGCUAGACUGCC [A16G U20G G29U], for which the self-cleavage came to 0.16.

Regarding GGCAGAGCUCAACACGGCGUGGCAAAGUGGCCGUGGGUAGACUGCC [A16G U32C C37G], the self-cleavage was 0.03.

As to GGCAGAGCUCAACACGCCGUGGCAAAGUGGCUGUGCCUAGACCUCC [A16G G17C G36C U43C G44U], the self-cleavage came out at 0.02.

As to GGCAGAGCUCAACACGACGUGGCAAAGAGGCUGUGGCUAGACUGCU [A16G G17A U28A C46U], the self-cleavage stood at 0.02.

For GGCAGAGCUCAACACCGCGUGGCAAAGUGGCAGUGGCUUGACUGCC [A16C U32A A39U], the self-cleavage was 0.02.

As for GGCAGAGCUCAACACGGCGUAGCAACGUGGCUGUGGCUAGACUGUC [A16G G21A A26C C45U], the self-cleavage amounted to 0.07.

GGCAGAGCUCAACACGGCGUGGCAAAGUAGCAGUGGCUAGACUGCC [A16G G29A U32A]: the self-cleavage was determined as 0.05.

GGCAGAGCUCAACACCGCGUGGCAAAGUGGCUGUGGAUAUACUGCC [A16C C37A G40U]: the self-cleavage stood at 0.06.

Consider GGCAGAGCUCAACACCGCGUGGCAAAGUUGCUCUGGCUAGACUGCC [A16C G29U G33C], for which the self-cleavage is 0.04.

As for GGCAGAGCUCAACACGGCUUGGCAAAGUGGCUGUUGCUAGACUGCC [A16G G19U G35U], the self-cleavage came to 0.05.

Take GGCAGAGCUCAACACGGAGUGGCAAAGUGGCUGUGGCUCGACUGCC [A16G C18A A39C]: the self-cleavage stood at 0.02.

As for GGCAGAGCUCAACACCGCGUAGCAAAGUGGCUGUGGCUAGACCGCC [A16C G21A U43C], the self-cleavage was 0.02.

For the variant GGCAGAGCUCAACACGGCGUGGCAAGGUGGCUGUAGCUAGACUGCC [A16G A26G G35A], the self-cleavage amounted to 0.03.

Turning to GGCAGAGCUCAACACGGCGUGGCAAAUUGGAUGUGUCUAGACUACC [A16G G27U C31A G36U G44A], the self-cleavage is 0.

As for GGCAGAGCUCAACACGGCGUGACAAAGGGGCUGUGGCUAGACUGCC [A16G G22A U28G], the self-cleavage came out at 0.92.

On to GGCAGAGCUCAACACGGCGUGGCAAAGAGGCUGGGGCUAGACUGAC [A16G U28A U34G C45A], for which the self-cleavage came out at 0.02.

On to GGCAGAGCUCAACACGUCGUGGCGAAGUGGUUGUGGCUAGACUGUC [A16G G17U A24G C31U C45U], for which the self-cleavage was determined as 0.03.

As to GGCAGAGCUCAACACCACGUGGCUAAGUGGGUCUGGCUAUACUGCC [A16C G17A A24U C31G G33C G40U], the self-cleavage stood at 0.07.

As for GGCAGAGCUCAACACGGCGUGACAAGGUGGCUGUGGCUAGACUGCC [A16G G22A A26G], the self-cleavage came to 0.08.

For the variant GGCAGAGCUCAACACGGCGUGGCAAAGUCCCUGUAGCUAGACUGCC [A16G G29C G30C G35A], the self-cleavage was 0.02.

As to GGCAGAGCUCAACACGGCGUGGUAAAGUGGCUGUGGCUAGUCUGCC [A16G C23U A41U], the self-cleavage was 0.3.

Take GGCAGAGCUCAACACCGCGUGGCAAAGUGGCUGUAGCUAUACUACC [A16C G35A G40U G44A]: the self-cleavage was determined as 0.03.

Take GGCAGAGCUCAACACCGCGUGGCAAAGUGGCUGUCGCUAGAAUGCC [A16C G35C C42A]: the self-cleavage was found to be 0.

With GGCAGAGCUCAACACGGCAUGGCAAAGUGGCUGUGACAAGUCUGCC [A16G G19A G36A U38A A41U], the self-cleavage is 0.52.

On to GGCAGAGCUCAACACCGCGUAGCAAAGUGGCUGUGGCUAGAUUGCA [A16C G21A C42U C46A], for which the self-cleavage stood at 0.04.

Consider GGCAGAGCUCAACACGGCGUGGAAAAGUGGCCGUGGCUAUACUGCC [A16G C23A U32C G40U], for which the self-cleavage was found to be 0.03.

Take GGCAGAGCUCAACACCCCGUGGCAACGUGGCUGUGGCUAGACUGCC [A16C G17C A26C]: the self-cleavage amounted to 0.18.

Turning to GGCAGAGCUCAACACCGCGUGGCAAAGUGGCUAUGCCUAUACUGCC [A16C G33A G36C G40U], the self-cleavage is 0.02.

For GGCAGAGCUCAACACGGCGUGUCAAAGUAGCUGUGGCUAGAAUGCA [A16G G22U G29A C42A C46A], the self-cleavage stood at 0.01.

On to GGCAGAGCUCAACACCGCGUGGCAAAAUGGCUGUGGCUAGACUACC [A16C G27A G44A], for which the self-cleavage was 0.08.

Take GGCAGAGCUCAACACCGCGUGGCAAAGCGUCUGUGGCUAGACUGCA [A16C U28C G30U C46A]: the self-cleavage worked out at 0.34.

On to GGCAGAGCUCAACACGGCGCGGCAAAUUGGCUGUGUCUAGACUGCC [A16G U20C G27U G36U], for which the self-cleavage came out at 0.02.

As to GGCAGAGCUCAACACGUCGGGGCAAAGUGUCUGUGGCUAGACUGCC [A16G G17U U20G G30U], the self-cleavage worked out at 0.07.

Consider GGCAGAGCUCAACACCGCGUGCAACAGUGGGUGUGGCUAGACUGCC [A16C G22C C23A A25C C31G], for which the self-cleavage is 0.02.

Regarding GGCAGAGCUCAACACCGCAUGGCCAAACGGCAGUGGCUAGACUGCC [A16C G19A A24C G27A U28C U32A], the self-cleavage turned out to be 0.03.

Regarding GGCAGAGCUCAACACGGCGUGGCAAAGUGGCGGCGGCUAGACUGCC [A16G U32G U34C], the self-cleavage came to 0.01.

On to GGCAGAGCUCAACACCGCGUGACAAAGUGGAUGUGGCUAGACUGCC [A16C G22A C31A], for which the self-cleavage was 0.01.

In the case of GGCAGAGCUCAACACGGUGUGGCAACGUGCCUGUGGCUAGACUGCC [A16G C18U A26C G30C], the self-cleavage was found to be 0.09.

Consider GGCAGAGCUCAACACGGGGUGGCAAAGUGGCUGUGGCUAGACCGCA [A16G C18G U43C C46A], for which the self-cleavage was 0.01.

With GGCAGAGCUCAACACGGCGUGGCAAAGUGGCUUUGGCAAGACUGCC [A16G G33U U38A], the self-cleavage was 0.02.

GGCAGAGCUCAACACGGCGUGUCAAAGUGGCUGUAGCUAGACUGCC [A16G G22U G35A]: the self-cleavage is 0.02.

For the variant GGCAGAGCUCAACACGGCGUGGCAAGGUGGCUGUGGCUAUAUCGCC [A16G A26G G40U C42U U43C], the self-cleavage was 0.06.

For GGCAGAGCUCAACACGGCGGGGCAAAGUGGCUGUGGCUAGACUGAC [A16G U20G C45A], the self-cleavage stood at 0.05.

As to GGCAGAGCUCAACACCGCGGGGCAUAGUGGCUGUGGCUAGACUGCC [A16C U20G A25U], the self-cleavage stood at 0.18.

Turning to GGCAGAGCUCAACACGGCGUGGCAAAGUGACUGUGGCUAGAAUGCC [A16G G30A C42A], the self-cleavage turned out to be 0.02.

These data come from the RNAGym collection of RNA variant scans (doi:10.7554/elife.90254).
